B1: CPEB3 Ribozyme (parent)
chain: UAACAGGGGGCCACAGCAGAAGCGUUCACGUCGCAGCCCCUGUCAGAUUCUGGUGAAUCUGCGAAUUCUGCUGUAUAUCUC

Read counts are not given, so values of variants with three or more changes are uncertain.

In this data set the parent is B1. Description: self-cleavage, relative activity (ratio to wild type); higher = more cleavage; in vitro, sequencing. In outline: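 Barcoded CPEB3 ribozyme mutants, produced by rounds of error-prone PCR, self-cleaved while being transcribed with T7 RNA polymerase for 5 hours at 37°C and during a subsequent 15 min DNase I step before EDTA was added. Sequencing of template-switched cDNA on Illumina gave cleaved and total reads, and DNA sequencing assigned barcodes to variants. Each variant's relative activity is its cleaved/total read fraction divided by the unmutated ribozyme's fraction, averaged across three batches. A variant needed a minimum of 5 reads.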
A20G U25G U26C U51C U69G C81U: the self-cleavage amounted to 0.06.

In the case of A20G U31C C44G U49C C68A U72A, the self-cleavage was found to be 0.22. The result for A20G A21G U26C U31A A57G U67C reads 0.22; that for A20G U26G U51C C62A, 0.22; that for A20G C37U A47G U58C U69C U72C, 0.09.

As to A20G A45G C50A U67C U72C A77G, the self-cleavage turned out to be 0.5. The same measure for A20G C32U C39G U51A: 0.15. The same measure for A20G A45C U69C: 0.16.

A20G C37A U49C G61U: the self-cleavage is 0.16. The same measure for A20G U26C C40U: 0.36; for A20G C27U U43A A45G A64G: 0.23. The result for A20G C39A A56U reads 0.08; that for A20G A21G U26C U67C, 0.13. The result for A20G U31C A45G U66C reads 0.34. As to A20G U31A C50U, the self-cleavage was 0.42. For the variant A20G G24A A28G U31C U41C, the self-cleavage stood at 0.27. As for A20G G33A U49C C59A, the self-cleavage amounted to 0.07. On to A20G U26C G33A, for which the self-cleavage turned out to be 0.07. On to A20G A56U U66C, for which the self-cleavage worked out at 0.42. The result for A20G A28G U43C reads 0.42. The result for A20G U26A A47G reads 0.42; that for A20G C29U G30U U51A U58A U69A U78C, 0.06. As to A20G A35G C39A U43C U49C U80C, the self-cleavage is 0.29. The same measure for A20G A21G U26A A45G U51A: 0.23; for A20G U26C G30A G61A: 0.2. Turning to A20G U26C A47U A75G, the self-cleavage was 0.39. The result for A20G A21G U43C A47U U60C reads 0.22; that for A20G A28U A47G U66C U72C, 0.18; that for A20G U31C C39A A45G, 0.09.

A20G U25A U43A U60A: the self-cleavage was 0.08. The same measure for A20G A45G U54C U60A A64U U69A: 0.07; for A20G A21U U51G U74C: 0.22; for A20G U25C A47C A56G: 0.29. For A20G A35G A64G U72C, the self-cleavage amounted to 1.22.

Take A20G U31C A45G C50A U78C: the self-cleavage is 0.31. Turning to A20G G55U U60C U72C, the self-cleavage came to 0.18. Turning to A20G U25C U58G, the self-cleavage came to 0.4. In the case of A20G G42U A45G A47G, the self-cleavage was found to be 0. Consider A20G G36A U78C, for which the self-cleavage amounted to 0.27.

In the case of A20G A28U A35U U67C, the self-cleavage is 0.25. Turning to A20G U26C C29U U31A, the self-cleavage amounted to 0.28. The result for A20G A35G G52A reads 1.23. Take A20G U25A A64U: the self-cleavage was 0.19. A20G G24C G33A: the self-cleavage turned out to be 0.18. The same measure for A20G G22U G61C: 0.21. As for A20G A21G A45U U72A, the self-cleavage is 0.08. With A20G A45G U74A, the self-cleavage came to 0.67. A20G G46U U51C: the self-cleavage was 0.21. The same measure for A20G G24A A28G: 0.12. The same measure for A20G G42C G63A: 0.15; for A20G C34U U43C U58C C81A: 0.23; for A20G A64G U76C: 0.32.

As for A20G A35G U60A U69C, the self-cleavage amounted to 0.48. As to A20G A28G U78C, the self-cleavage turned out to be 0.25. For A20G U26A U74G, the self-cleavage came out at 1.2.

In the case of A20G G52A U58C, the self-cleavage amounted to 0.25.

Consider A20G G24A U41A U60C U76C, for which the self-cleavage stood at 0.13. On to A20G A28G U51A A64U U67C, for which the self-cleavage amounted to 0.11. For the variant A20G U26A A45G U48C U51A A65G U72C, the self-cleavage is 0.06. With A20G G24C A56U, the self-cleavage turned out to be 0.2. The same measure for A20G U25C U51C U80C: 0.3; for A20G U26C A35G U43A U58C: 0.17; for A20G A21G A45G C50U U72A: 0.12. The result for A20G U26A A56G reads 0.36; that for A20G A35G U60C C62A U69C, 0.26. With A20G A28G C29U C37U U49C U51A, the self-cleavage came out at 0.16. In the case of A20G U25C A28G U49C U67C U76A U78G, the self-cleavage worked out at 0. The same measure for A20G U25C U31A U48C G53C U74A: 0.04. Consider A20G A57U U80A, for which the self-cleavage was 0.23. For the variant A20G A21G U25C U51C, the self-cleavage stood at 0.36.

For the variant A20G C37G A65G A77G, the self-cleavage stood at 0.19. The same measure for A20G U25C G52A: 0.27. As for A20G C32U U67C U78C, the self-cleavage came out at 0.26.

With A20G U26C U51G, the self-cleavage was determined as 0.17. As to A20G U26A U49C A56G U76C, the self-cleavage was 0.82. The result for A20G A28C U49A A56G C79U reads 0.16; that for A20G U25C C32A U54A A56U U78C, 0.13; that for A20G A28G A35U U69C, 0.08. The result for A20G G70C U72C reads 0.28; that for A20G U31C U41C U54C U72A, 0.17. Turning to A20G U26C U31A U78C, the self-cleavage was determined as 0.14. As for A20G C38U A45G U69C C81A, the self-cleavage was 0.2.

On to A20G A56G A64U U80C, for which the self-cleavage was found to be 0.27. The result for A20G A28G U66C U72A reads 0.09. As for A20G U26C U43A A47G U54C U69A, the self-cleavage is 0.27. The same measure for A20G A28G G53A U72A U78C: 0.46; for A20G U26A C32A U51A: 0.19; for A20G G24A C44U: 0.09. Take A20G A56G U60A U67C U78C: the self-cleavage came out at 0.13. Turning to A20G A35U U51A U72G, the self-cleavage came out at 0.24. With A20G C50A U51C G52U U60C U69A, the self-cleavage was determined as 0.3. The result for A20G A21G A35G U43A reads 0.26. The same measure for A20G U25C U49C A56G: 0.36. In the case of A20G C32A U58A A77G C79A, the self-cleavage was 0.05.

For the variant A20G U25C A35G C38A U51A, the self-cleavage worked out at 0.08.

As to A20G A35G A65G, the self-cleavage stood at 0.73. The result for A20G U25A U51G reads 0.1. The same measure for A20G C29U C40U A64U U67C: 0.11; for A20G C39U U49C U60C: 0.08. For the variant A20G U26C C62U U66C U72A U78G, the self-cleavage was found to be 0.07. On to A20G U26C U76A, for which the self-cleavage came to 0.32. As for A20G U26C U76C, the self-cleavage is 0.41.

Take A20G U26A G36U: the self-cleavage came to 0.07. Take A20G A21G U26G U51A: the self-cleavage was 0.06. The same measure for A20G C38U U41C A57C U58C U69A: 0.07.

Turning to A20G U26C U49A A64G U76A, the self-cleavage was determined as 0.06. On to A20G U25A U51G A64G, for which the self-cleavage was found to be 0.06.

Turning to A20G G24A U25C G42A A56G G61C A64U, the self-cleavage was 0.19.

Turning to A20G A57G U69C A77U, the self-cleavage was 0.53.

As for A20G A47U C68U U76C, the self-cleavage amounted to 0.13.

Take A20G A21G U25A U48C A64G U66C U69C: the self-cleavage worked out at 0.31.

As to A20G A47G C62U, the self-cleavage came out at 0.2. As for A20G A21G A35G A47G U48C U51C U69C, the self-cleavage stood at 0.28. As for A20G U31G A45C A56G U67C, the self-cleavage is 0.05. Take A20G U25C A35U U54G G70A G73A: the self-cleavage was determined as 0.1. A20G A28U U60C U80C: the self-cleavage was found to be 0.23. The result for A20G U25A G30C A35G U80C reads 0.37; that for A20G G22U C40A, 0.31; that for A20G A28U U31C A35G U72A, 0.33. Take A20G A65G U69C: the self-cleavage came to 0.28. Regarding A20G C32A A64G, the self-cleavage was 0.26. Take A20G A47G A57C U67C: the self-cleavage came to 0.27.

Turning to A20G A35G U41A U51C U58A A77G, the self-cleavage was determined as 0.2.

As to A20G C40U U58C A77U U78C, the self-cleavage is 0.08. The result for A20G U25C A57G G70A G73A reads 0.04. For A20G A35G U41A U49A U67C, the self-cleavage came to 0.12. Turning to A20G U25C U49C, the self-cleavage is 0.07. For A20G A45G U76C, the self-cleavage amounted to 0.42. The result for A20G U26A C32U U48C A65G U80C reads 0.14; that for A20G C27A G33A U69C, 0.14; that for A20G U25C U41G, 0.12. The same measure for A20G U31C A57G U67A C79A: 0.3. The same measure for A20G U26A A75G: 0.64; for A20G U25C U43C U60C U69C A77G: 0.02.

A20G C37A A57G U58C: the self-cleavage was 0.22.

With A20G U26C U78C, the self-cleavage is 0.35. For A20G A28G U43C U58C, the self-cleavage is 0.23. Take A20G U25C G30A G33U U54C: the self-cleavage worked out at 0.12. The same measure for A20G A35G A45C: 0.61. Regarding A20G U31C U43C, the self-cleavage amounted to 0.38. The result for A20G U25C U43C U69C A75G reads 0.1; that for A20G C27U U31C U51C, 0.02; that for A20G U26C U54C G63U U66C, 0.08. A20G U26C C32G U67A: the self-cleavage was determined as 0.09. As for A20G U25C A45C U72C U78C, the self-cleavage amounted to 0. Take A20G A35U U41C: the self-cleavage was determined as 0.42.

As to A20G A28G U43A A45G U66C, the self-cleavage was found to be 0.3.

Turning to A20G G33A A47G U48C U74C, the self-cleavage was 0.14. The same measure for A20G A47G U58A A65G: 0.23; for A20G U25C G33C U58G: 0.04; for A20G U26A U49A U60C: 0.24. The same measure for A20G C27U U51A C59U: 0.06.

In the case of A20G U25A U41C U43C, the self-cleavage amounted to 0.32.

For A20G U25C U31A U48C, the self-cleavage was determined as 0.33.

For the variant A20G G33U U48C, the self-cleavage was determined as 0.09.

With A20G U26C G61C U80A, the self-cleavage amounted to 0.07. The same measure for A20G A28G U58C U66A A77G: 0.09. Consider A20G A21G G24A U41C A65G, for which the self-cleavage is 0.07. The result for A20G A21G A28U U60A U69A U72C reads 0. The same measure for A20G A56U G61A A75G U76A: 0.11. With A20G A28G G33A A35G G55C, the self-cleavage was 0.04.

As to A20G U25A G53C, the self-cleavage stood at 0.25. The same measure for A20G U26C C44A A57G: 0.07; for A20G C27A U41C U43A U80C: 0.2; for A20G U25C A56G U72A U80A: 0.1.

Regarding A20G A35G U72G, the self-cleavage is 1.15.

As to A20G A45G U48C, the self-cleavage amounted to 0.23.

The record behind these values is the RNAGym collection of RNA variant scans (doi:10.1093/nar/gkz1192).
